Experimental data taken from paper PMC10668032.
This is one part of the list. At the low end of the ranking the order means little.

The sequences below were run against SIX1 homeodomain (reference allele) (UniProt Q15475) (assay: universal protein binding microarray). Details: Universal all-10-mer PBM (8x60K, AMADID 030236), 300 nM GST-tagged protein, Alexa Fluor 488 anti-GST; buffer, salt, pH and temperature not stated; high values mean tight binding; most listed sequences are background and not binding sites; double strand, one strand shown.

Row | Sequence | binding signal
1 | ATGCAAAG | 0.0304 E-score
2 | ATAAGACC | -0.183 E-score
3 | AGCCCAAT | -0.165 E-score
4 | AGTGTCAA | 0.168 E-score
5 | CGTCATAG | -0.378 E-score
6 | AAGTATCG | 0.369 E-score
7 | ATTATCAA | 0.165 E-score
8 | AGTCCTAG | -0.197 E-score
9 | CCCGGGAA | 0.0874 E-score
10 | ATCCGCTG | 0.305 E-score
11 | ACGCAGGG | -0.0604 E-score
12 | GAACGCAC | -0.193 E-score
13 | AGTACTGA | -0.033 E-score
14 | AATCCACT | 0.0419 E-score
15 | CCTGAGTC | -0.0643 E-score
16 | ATCGGATA | 0.423 E-score
17 | AAGTCCGC | -0.188 E-score
18 | GGGAGGAC | -0.207 E-score
19 | GGTAGAAA | -0.137 E-score
20 | GGGCTTCA | -0.196 E-score
21 | CGACGGCA | -0.0214 E-score
22 | AACGGTCC | -0.385 E-score

Row | Sequence | binding signal
23 | GACCTCTA | -0.243 E-score
24 | AGGAACAG | -0.166 E-score
25 | TACGTAGA | -0.00441 E-score
26 | ATTCGCGG | 0.0131 E-score
27 | TAACCTAA | -0.149 E-score
28 | ACGTTTCG | -0.118 E-score
29 | CACATTCA | -0.207 E-score
30 | TTTTAAAA | 0.0226 E-score
31 | AAACATAG | -0.334 E-score
32 | AGGAATAT | 0.199 E-score
33 | CAGCACCA | -0.0959 E-score
34 | AAACCCCT | 0.0625 E-score
35 | AACCGGCC | -0.16 E-score
36 | ACGTTTAG | -0.113 E-score
37 | ACTAGGGA | -0.114 E-score
38 | GAGCGTAA | -0.198 E-score
39 | CCATCTAC | 0.161 E-score
40 | TCCGAGGA | 0.0698 E-score
41 | CTACGTCA | -0.0636 E-score
42 | TCCCGACA | 0.0528 E-score
43 | ATGAACGA | 0.0796 E-score
44 | ATCAGGAT | 0.394 E-score

Row | Sequence | binding signal
45 | ATGAACTC | -0.0936 E-score
46 | ATGCCACA | -0.0216 E-score
47 | AAGGTTAT | -0.0395 E-score
48 | ATAAACGA | 0.0453 E-score
49 | CTGAGCCC | 0.161 E-score
50 | CTCAGTGC | -0.0169 E-score
51 | AGTCCGTC | -0.19 E-score
52 | GAAAGGTC | -0.117 E-score
53 | CATTATTA | -0.114 E-score
54 | ACCGCGTA | -0.00515 E-score
55 | CACATGAG | -0.189 E-score
56 | CACCTACG | 0.0118 E-score
57 | CAGGTTTC | -0.0245 E-score
58 | CAAACTAG | 0.0333 E-score
59 | CGGGGACC | -0.139 E-score
60 | CATCTGTA | -0.057 E-score
61 | AAATTGGC | -0.22 E-score
62 | AAGCAAAA | -0.27 E-score
63 | GGAACACA | -0.131 E-score
64 | CTGGGGCC | 0.0514 E-score
65 | ATTCGTGC | -0.123 E-score
66 | GATACAAA | 0.252 E-score

Row | Sequence | binding signal
67 | GGTCTTGA | -0.035 E-score
68 | ATATCGCA | 0.42 E-score
69 | CGAAAGGC | -0.226 E-score
70 | GTCTGAGA | -0.021 E-score
71 | AGCGAACA | -0.107 E-score
72 | AGCCTCCG | -0.0318 E-score
73 | AGTACTTA | -0.22 E-score
74 | ACGCTATA | -0.0146 E-score
75 | ACTTTGCC | -0.183 E-score
76 | AAGGATAT | 0.365 E-score
77 | CTATCTGC | 0.19 E-score
78 | CCCTATAC | 0.271 E-score
79 | GACAAATA | -0.0816 E-score
80 | AATCTCTA | 0.0606 E-score
81 | CACCGCTA | -0.0119 E-score
82 | ATTTCACA | -0.0231 E-score
83 | GCGTCGAC | 0.017 E-score
84 | ATATTACA | 0.266 E-score
85 | CTCCCCTC | 0.069 E-score
86 | AGATCAAT | 0.383 E-score
87 | GACTTGTA | -0.033 E-score
88 | AATGACGG | -0.168 E-score

Row | Sequence | binding signal
89 | GACAGAGA | -0.104 E-score
90 | CAAGTATG | -0.0542 E-score
91 | CCTCGGAA | 0.0957 E-score
92 | CAGATACG | 0.334 E-score
93 | AACTACTT | -0.102 E-score
94 | CGATCGGC | 0.18 E-score
95 | AGATCAAC | 0.264 E-score
96 | AACCGGTC | -0.171 E-score
97 | CGCAAACC | 0.0504 E-score
98 | TAGGAAAA | -0.167 E-score
99 | GCGCTGAA | -0.324 E-score
100 | AAGTGGTG | 0.109 E-score
101 | AAGACGCA | -0.0798 E-score
102 | GTCTGCCA | -0.16 E-score
103 | AGAGTATA | 0.262 E-score
104 | AGTCAGTG | 0.00155 E-score
105 | CACTTTTA | -0.266 E-score
106 | ATGAGTAC | -0.0324 E-score
107 | CCCCTCCG | 0.129 E-score
108 | GGCACTAC | -0.24 E-score
109 | GACCATGA | 0.216 E-score
110 | ATTTGACA | 0.000975 E-score
